In the supplement of paper PMC8728848:
The other results are listed elsewhere or left out.

Tests used:
Experiment in all cases: glycan array binding signal (z-score within array); higher = stronger binding
Conditions in all cases: glycan notation: IUPAC condensed, linker removed
[1] = biological target: GlcNAc(b1-3)Gal(b1-4)GlcNAc(b1-3)Gal(b1-4)GlcNAc(b1-2)Man(a1-3)[GlcNAc(b1-3)Gal(b1-4)GlcNAc(b1-3)Gal(b1-4)GlcNAc(b1-2)Man(a1-6)]Man(b1-4)GlcNAc(b1-4)[Fuc(a1-6)]GlcNAc
Method in brief: (§1)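 Columns mapping to the same glycan were averaged after glycan names were converted to IUPAC-condensed notation. The data come from 3228 arrays in the Consortium for Functional Glycomics database, limited to those with an available protein sequence. Binding is reported as a within-array Z-score averaged across arrays of one protein sequence and across linkers.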

[2] = biological target: GlcNAc(b1-3)Gal(b1-4)GlcNAc(b1-3)Gal(b1-4)GlcNAc(b1-2)[GlcNAc(b1-3)Gal(b1-4)GlcNAc(b1-3)Gal(b1-4)GlcNAc(b1-6)]Man(a1-6)[GlcNAc(b1-3)Gal(b1-4)GlcNAc(b1-3)Gal(b1-4)GlcNAc(b1-2)Man(a1-3)]Man(b1-4)GlcNAc(b1-4)[Fuc(a1-6)]GlcNAc
Method in brief: as §1

[3] = biological target: GlcNAc(b1-3)Gal(b1-4)GlcNAc(b1-3)Gal(b1-4)GlcNAc(b1-3)Gal(b1-4)GlcNAc(b1-2)Man(a1-3)[GlcNAc(b1-3)Gal(b1-4)GlcNAc(b1-3)Gal(b1-4)GlcNAc(b1-3)Gal(b1-4)GlcNAc(b1-2)Man(a1-6)]Man(b1-4)GlcNAc(b1-4)GlcNAc
Method in brief: as §1

[4] = biological target: GlcNAc(b1-3)Gal(b1-4)GlcNAc(b1-3)Gal(b1-4)GlcNAc(b1-3)Gal(b1-4)GlcNAc(b1-2)Man(a1-3)[GlcNAc(b1-3)Gal(b1-4)GlcNAc(b1-3)Gal(b1-4)GlcNAc(b1-3)Gal(b1-4)GlcNAc(b1-2)Man(a1-6)]Man(b1-4)GlcNAc(b1-4)[Fuc(a1-6)]GlcNAc
Method in brief: as §1

[5] = biological target: GlcNAc(b1-3)Gal(b1-4)GlcNAc(b1-3)Gal(b1-4)GlcNAc(b1-3)Gal(b1-4)GlcNAc(b1-2)[GlcNAc(b1-3)Gal(b1-4)GlcNAc(b1-3)Gal(b1-4)GlcNAc(b1-3)Gal(b1-4)GlcNAc(b1-6)]Man(a1-6)[GlcNAc(b1-3)Gal(b1-4)GlcNAc(b1-3)Gal(b1-4)GlcNAc(b1-3)Gal(b1-4)GlcNAc(b1-2)Man(a1-3)]Man(b1-4)GlcNAc(b1-4)[Fuc(a1-6)]GlcNAc
Method in brief: as §1

[6] = biological target: GlcNAc(b1-3)Gal(b1-4)GlcNAc(b1-3)Gal(b1-4)GlcNAc(b1-3)Gal(b1-4)GlcNAc(b1-3)Gal(b1-4)GlcNAc(b1-2)Man(a1-3)[GlcNAc(b1-3)Gal(b1-4)GlcNAc(b1-3)Gal(b1-4)GlcNAc(b1-3)Gal(b1-4)GlcNAc(b1-3)Gal(b1-4)GlcNAc(b1-2)Man(a1-6)]Man(b1-4)GlcNAc(b1-4)GlcNAc
Method in brief: as §1

[7] = biological target: GlcNAc(b1-3)Gal(b1-4)GlcNAc(b1-3)Gal(b1-4)GlcNAc(b1-3)Gal(b1-4)GlcNAc(b1-3)Gal(b1-4)GlcNAc(b1-2)Man(a1-3)[GlcNAc(b1-3)Gal(b1-4)GlcNAc(b1-3)Gal(b1-4)GlcNAc(b1-3)Gal(b1-4)GlcNAc(b1-3)Gal(b1-4)GlcNAc(b1-2)Man(a1-6)]Man(b1-4)GlcNAc(b1-4)[Fuc(a1-6)]GlcNAc
Method in brief: as §1

[8] = biological target: GlcNAc(b1-3)Gal(b1-4)GlcNAc(b1-3)Gal(b1-4)GlcNAc(b1-3)Gal(b1-4)GlcNAc(b1-3)Gal(b1-4)GlcNAc(b1-2)[GlcNAc(b1-3)Gal(b1-4)GlcNAc(b1-3)Gal(b1-4)GlcNAc(b1-3)Gal(b1-4)GlcNAc(b1-3)Gal(b1-4)GlcNAc(b1-6)]Man(a1-6)[GlcNAc(b1-3)Gal(b1-4)GlcNAc(b1-3)Gal(b1-4)GlcNAc(b1-3)Gal(b1-4)GlcNAc(b1-3)Gal(b1-4)GlcNAc(b1-2)Man(a1-3)]Man(b1-4)GlcNAc(b1-4)[Fuc(a1-6)]GlcNAc
Method in brief: as §1

[9] = biological target: GlcNAc(b1-3)Gal(b1-4)GlcNAc(b1-3)Gal(b1-4)GlcNAc(b1-3)GalNAc
Method in brief: as §1

[10] = biological target: GlcNAc(b1-3)Gal(b1-4)GlcNAc(b1-3)GalNAc
Method in brief: as §1

[11] = biological target: GlcNAc(b1-3)Gal(b1-4)GlcNAc(b1-3)[GlcNAc(b1-3)Gal(b1-4)GlcNAc(b1-3)]GalNAc
Method in brief: as §1

[12] = biological target: GlcNAc(b1-3)Gal(b1-4)GlcNAc(b1-6)[Gal(b1-3)]GalNAc
Method in brief: as §1

[13] = biological target: GlcNAc(b1-3)Gal(b1-4)GlcNAc(b1-6)[GlcNAc(b1-3)Gal(b1-3)]GalNAc
Method in brief: as §1

[14] = biological target: GlcNAc(b1-3)Gal(b1-4)GlcNAc(b1-6)[GlcNAc(b1-3)]Gal(b1-4)GlcNAc
Method in brief: as §1

[15] = biological target: GlcNAc(b1-3)GalNAc
Method in brief: as §1

[16] = biological target: GlcNAc(b1-3)Man
Method in brief: as §1

[17] = biological target: GlcNAc(b1-3)[GlcNAc(b1-4)][GlcNAc(b1-6)]GlcNAc
Method in brief: as §1

[18] = biological target: GlcNAc(b1-3)[GlcNAc(b1-6)]Gal(b1-4)GlcNAc
Method in brief: as §1

[19] = biological target: GlcNAc(b1-3)[GlcNAc(b1-6)]GalNAc
Method in brief: as §1

[20] = biological target: GlcNAc(b1-4)Gal(b1-4)GlcNAc
Method in brief: as §1

[21] = biological target: GlcNAc(b1-4)GlcNAc
Method in brief: as §1

[22] = biological target: GlcNAc(b1-4)GlcNAc(b1-4)GlcNAc
Method in brief: as §1

[23] = biological target: GlcNAc(b1-4)GlcNAc(b1-4)GlcNAc(b1-4)GlcNAc(b1-4)GlcNAc
Method in brief: as §1

B1: GS13455A-bfa-343-25-343 (Bacteroides fragilis) (protein)
chain: KDEIQIVDQDTSWQMDNKYIEEDIREQLGIDPFTDLVYLGYYGNPYTQLEAINDLVNTTLVGKNELSFKVKVTKPYKEDIKVNLMKEDKLVTDFPEMAEGIPLFPSENCTFEGGVLKAGELETTVKLTLKDVEKLNNLSGYVMAIKLTMEGSHEHLAIARTRSSYFVKLNLSIRLDNIDSSNKKIEGKGFNKEISFKSDIRPDKLGSLNDGNFTANNWYTSNANNYLTIILPEKQSLKGFRLDTNTSPSGSYMLKSCRVMVETPDGNWVNHGVFDRKSMDGIAYISFKKPVECTKVRFENMMAFNGRFSVDVNEVTAFR
glycan array binding signal (z-score) [1]: 1.01 | glycan array binding signal (z-score) [2]: -0.352 | glycan array binding signal (z-score) [3]: 0.209 | glycan array binding signal (z-score) [4]: 0.311 | glycan array binding signal (z-score) [5]: 0.758 | glycan array binding signal (z-score) [6]: -0.258 | glycan array binding signal (z-score) [7]: -0.458 | glycan array binding signal (z-score) [8]: -0.332 | glycan array binding signal (z-score) [9]: -0.212 | glycan array binding signal (z-score) [10]: -0.438 | glycan array binding signal (z-score) [11]: -0.419 | glycan array binding signal (z-score) [12]: -0.194 | glycan array binding signal (z-score) [13]: 0.114 | glycan array binding signal (z-score) [14]: 0.674 | glycan array binding signal (z-score) [15]: -0.658 | glycan array binding signal (z-score) [16]: 0.399 | glycan array binding signal (z-score) [17]: 0.234 | glycan array binding signal (z-score) [18]: 0.499 | glycan array binding signal (z-score) [19]: -0.093 | glycan array binding signal (z-score) [20]: -0.678 | glycan array binding signal (z-score) [21]: -0.293 | glycan array binding signal (z-score) [22]: -0.289 | glycan array binding signal (z-score) [23]: -0.754
